Measurements published in paper PMC6019357.
Results are given in words; binding and its absence hold for the method and conditions named. Binding seen in cells or lysates may run through a third protein. Some entries that bind do so weakly or less than the wild type.

Amino acid sequences for entries named in this document (tags omitted).
UniProt Q08775: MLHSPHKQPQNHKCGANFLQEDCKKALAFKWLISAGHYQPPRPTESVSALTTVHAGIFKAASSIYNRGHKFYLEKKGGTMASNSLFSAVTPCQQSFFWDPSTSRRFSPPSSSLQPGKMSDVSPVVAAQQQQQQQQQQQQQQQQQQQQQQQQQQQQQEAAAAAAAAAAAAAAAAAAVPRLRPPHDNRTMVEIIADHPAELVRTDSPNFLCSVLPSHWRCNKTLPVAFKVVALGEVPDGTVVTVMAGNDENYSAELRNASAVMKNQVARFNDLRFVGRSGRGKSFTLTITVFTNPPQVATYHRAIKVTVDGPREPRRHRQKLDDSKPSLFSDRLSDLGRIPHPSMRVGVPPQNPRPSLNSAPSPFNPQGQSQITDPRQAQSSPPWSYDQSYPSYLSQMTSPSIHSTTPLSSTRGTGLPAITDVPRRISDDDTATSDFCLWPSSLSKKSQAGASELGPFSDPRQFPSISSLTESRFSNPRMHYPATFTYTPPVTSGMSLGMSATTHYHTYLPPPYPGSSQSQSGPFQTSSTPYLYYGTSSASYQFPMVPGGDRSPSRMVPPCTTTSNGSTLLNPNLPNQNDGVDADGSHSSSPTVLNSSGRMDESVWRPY

T1: interferon-inducible protein p202 (mouse (endogenous in mouse BMSCs; wild-type mouse cDNA in pcDNA-p202)) (UniProt Q9R002)
T1 sequence: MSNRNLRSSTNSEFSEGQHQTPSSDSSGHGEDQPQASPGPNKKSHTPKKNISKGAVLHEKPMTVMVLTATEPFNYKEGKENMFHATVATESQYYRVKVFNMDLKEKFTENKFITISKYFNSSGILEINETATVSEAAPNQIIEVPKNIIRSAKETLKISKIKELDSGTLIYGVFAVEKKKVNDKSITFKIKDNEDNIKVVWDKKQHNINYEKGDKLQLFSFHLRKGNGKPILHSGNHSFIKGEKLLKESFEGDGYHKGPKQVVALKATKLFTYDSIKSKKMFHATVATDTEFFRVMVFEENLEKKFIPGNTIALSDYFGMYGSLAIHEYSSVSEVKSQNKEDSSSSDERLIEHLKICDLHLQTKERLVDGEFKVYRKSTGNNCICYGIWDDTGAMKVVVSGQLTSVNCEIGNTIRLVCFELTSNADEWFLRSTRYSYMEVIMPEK


Assays:
[1] = biological target: T1, interferon-inducible protein p202 (mouse (endogenous in mouse BMSCs; wild-type mouse cDNA in pcDNA-p202)); test: co-IP; extracts of mouse BMSCs at day 4 of osteogenic induction (OS; also mock, siRNA-p202, pcDNA or pcDNA-p202 treated) incubated with anti-p202 or anti-Runx2 antibody (1 ug) at 4°C overnight, protein A/G Plus Agarose beads, Western blot with anti-p202, anti-Runx2, anti-Id1, anti-Id2 or anti-Id3
[2] = biological target: Runt-related transcription factor 2 (mouse (endogenous in mouse BMSCs)) (UniProt Q08775); test: as above

Molecule | binding [1] | binding [2]
Runt-related transcription factor 2 (from UniProt Q08775 1-607) | no binding | 
inhibitor of differentiation protein Id1 (protein, UniProt P20067 1-168) MKVASGSAAAAAGPSCSLKAGRTAGEVVLGLSEQSVAISRCAGTRLPALLDEQQVNVLLYDMNGCYSRLKELVPTLPQNRKVSKVEILQHVIDYIRDLQLELNSESEVGTTGGRGLPVRAPLSTLNGEISALAAEVRSESEYYIILQWETEATGGGCPPSLLFRRIAI | binds | binds
inhibitor of differentiation protein Id2 (protein, UniProt P41136 1-134) MKAFSPVRSVRKNSLSDHSLGISRSKTPVDDPMSLLYNMNDCYSKLKELVPSIPQNKKVTKMEILQHVIDYILDLQIALDSHPTIVSLHHQRPGQNQASRTPLTTLNTDISILSLQASEFPSELMSNDSKVLCG | binds | binds
inhibitor of differentiation protein Id3 (protein, UniProt P41133 1-119) MKALSPVRGCYEAVCCLSERSLAIARGRGKSPSTEEPLSLLDDMNHCYSRLRELVPGVPRGTQLSQVEILQRVIDYILDLQVVLAEPAPGPPDGPHLPIQTAELTPELVISKDKRSFCH | binds | binds
